The structures appear in SMILES notation. Where “and” joins values, the source holds several entries; their conditions need not be identical. Identical values can stand only once.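 Grown in 96-well plates, cells were treated for 48 hours with each compound at five concentrations. Insufficient inhibition: endpoint recorded as highest concentration tested. GI50: concentration for 50% inhibition of growth. TGI: total growth inhibition.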 Calls of active or inactive are those of the source. Rule as the data show it: active = GI50 below about 0.43 µM; inactive = the rest. Where only a bound is given, the exact number is not on record here.

In the assay the test system is NCI-H322M lung. Kind of assay: NCI-60 cell line screen, 48 h.
Compound `N#C/C(=C\c1ccc2ccccc2c1)c1ccccc1` registered a TGI of more than 100 µM. Compound `COc1ccc2c(c1)-c1nc(=S)n(CCCN(C)C)c3ccc([N+](=O)[O-])c(c13)N2` returned a TGI of 16 µM. `c1ccc(-c2cn3c(nc4ccccc43)c(-c3ccccc3)n2)cc1`: the TGI was more than 100 µM. For the compound `OCCCNc1nc(=S)[nH]c2[nH]ncc12`, the GI50 was more than 100 µM and the TGI is more than 100 µM. For the compound `COC1(OC)CC2OC1C1N=NN(C(=O)OC(C)(C)C)C21` (stereo unspecified), the TGI is more than 100 µM. For `Cc1ccc2c(c1)Sc1c(ccc3ccccc13)N2`, the GI50 was more than 100 µM and the TGI was more than 100 µM. For the compound `NC12CC3CC(C1)CC(C(=O)O)(C3)C2`, the TGI is more than 100 µM. `Ic1ccc2c(c1)N(c1ccccc1)c1cc(N=c3ccc4nc5ccc(I)cc5n(-c5ccccc5)c-4c3)ccc1N2` had a TGI of more than 100 µM. On to `C/C(Cl)=N/OC(=O)Nc1ccc(S(N)(=O)=O)c(C)c1`, for which the TGI was more than 76.5 µM. `O=C(CCN(C(=O)O)S(=O)(=O)c1ccc(NC(=O)c2ccccc2)cc1)NC1CCCCC1` returned a TGI of more than 100 µM.

Regarding `Cc1ccc(C(=O)N(CCCN)C(c2oc3cc(Cl)ccc3c(=O)c2Cc2ccccc2)C(C)C)cc1` (stereo unspecified), the GI50 is less than 0.01 µM and the TGI was determined as 2.02 µM.

As for `COc1cc[nH]c1/C=C1\C(=O)Nc2ccc(F)c(C#CC3(O)CCNCC3)c21`, the GI50 is 0.288 µM and the TGI turned out to be 1.64 µM. On to `O=C(CCc1cc(-c2ccccc2)nc(=S)[nH]1)N(Cc1ccccc1)Cc1ccccc1`, for which the TGI is more than 100 µM. In turn, `COC(=O)CC(c1cn(S(=O)(=O)c2ccc(C)cc2)c2ccccc12)C1C[C@@H](C(=O)OC)N(C(=O)OC(C)(C)C)C1=O` (stereo partly specified) yielded a TGI of more than 100 µM. As to `Cc1cc2c(cc1Cl)SC1=NN(C)S(=O)N1S2(=O)=O` (stereo unspecified), the GI50 is more than 100 µM and the TGI was more than 100 µM. With `CS(=O)(=O)CCNCc1ccc(-c2ccc3ncnc(Nc4ccc(OCc5ccccc5)cc4)c3c2)o1`, the GI50 was 2.63 µM and the TGI was more than 25 µM. Turning to `COc1ccc2c(c1)CCCN2c1c2ccccc2nc2ccccc12`, the GI50 is 0.788 µM and the TGI is more than 100 µM. The compound `O=C(O)CCC(=O)Nc1ccc2ccccc2c1` registered a TGI of more than 100 µM.

On to `CC(C)(C)c1cc(CCC(=O)Nc2ccc(Cl)cc2)nc(NC#N)n1`, for which the TGI is more than 100 µM.

For the compound `O=C1CCC(N2C(=O)c3ccccc3C2=O)C(=O)N1CO` (stereo unspecified), the GI50 is more than 100 µM and the TGI was more than 100 µM. `N#CC12CNCC1CN=N2` (stereo unspecified) gave a TGI of more than 100 µM. As for `O=C(CC1C(=O)NN(c2ccc(Br)cc2)C1=O)c1cc(O)ccc1O` (stereo unspecified), the GI50 is 12.4 µM and the TGI is more than 50 µM. `COc1ccc(NC(=O)CC(=O)N/N=C/c2ccc(N(CCC#N)S(C)(=O)=O)cc2)cc1`: the TGI was more than 100 µM. Consider `OC1(c2ccccc2)C2CCN(CC2)C1CN1CCOCC1` (stereo unspecified), for which the TGI was more than 100 µM. With `COC(=O)Nc1nc2ccc(Oc3ccc(NC(=O)Nc4cc(C(F)(F)F)ccc4F)cc3)cc2s1`, the GI50 was more than 25 µM and the TGI was more than 25 µM. As to `COC(=O)C1=C(O)C(C(=O)OC)[C@]2(O)[C@H](C(=O)OC)[C@H]1C[C@@H](c1ccc(OC)c(OC)c1)[C@H]2C(=O)OC` (stereo partly specified), the TGI was more than 100 µM. Consider `CO/C(N)=C(\C#N)N=Cc1ccco1`, for which the TGI was more than 100 µM.

Consider `O=C1Nc2ccccc2C1(c1ccc(O)cc1)c1ccc(O)cc1`, for which the GI50 is 0.865 µM and the TGI is 70.8 µM.

`O=c1[nH]c(=O)n(CCOc2ccccc2)cc1Nc1ccccc1` returned a TGI of more than 100 µM.

`C=C(C[C@](O)(C(=O)/C=C/c1ccc(Cl)cc1)C(=O)OC)c1ccccc1`: the GI50 was 2.44 µM and the TGI amounted to 10 µM. Take `O=C(CCc1nnc2sc(-c3ccc(Cl)cc3Cl)nn12)c1nc2ccccc2[nH]1`: the GI50 was 1.76 µM and the TGI was 3.74 µM. In turn, `O=C(O)COCC(=O)N(CCOCCN(Cc1ccccc1)C(=O)COCC(=O)O)Cc1ccccc1` yielded a TGI of more than 100 µM. Regarding `O=C(O)CCNC1CCCCC1`, the GI50 was more than 100 µM and the TGI is more than 100 µM. `Cc1c(C(=O)C/C(=N/NC(=O)C[N+](C)(C)C)C(=O)Nc2ccc(Cl)cc2)[n+](=O)c2ccccc2n1O`: the TGI is more than 100 µM. On to `Cc1cc(Cl)cc2c1NC(=O)C2(O)CC(=O)c1ccco1` (stereo unspecified), for which the TGI is more than 100 µM.

With `CCC/C=C/c1cc2c(cc1O)CC[C@@H]1[C@@H]2CC[C@]2(C)[C@@H](O)CC[C@@H]12`, the TGI worked out at 31.7 µM.

Turning to `CC(=O)Oc1cc(Cl)c(C)c2c1[C@H]1CC[C@]3(C)[C@@H](OC(C)=O)CC[C@H]3[C@@H]1CC2`, the TGI is more than 100 µM. Take `NC1=NC(c2ccccc2)CC(c2cc(Cl)ccc2O)=N1` (stereo unspecified): the TGI was 35.8 µM. For the compound `Nc1nccc(-c2c(-c3ccc(F)cc3)ncn2C2CCC(O)CC2)n1` (stereo unspecified), the GI50 is 8.08 µM and the TGI was more than 25 µM. As to `O=C(NC12CC3CC(CC(F)(C3)C1)C2)c1ccccc1`, the TGI is more than 100 µM. Compound `c1ccc2c(c1)CC1=C(O2)c2ccccc2OC1` showed a TGI of more than 100 µM. In turn, `C/C(O)=C(\N=O)C(=O)Nc1ccc(Cl)cc1Cl` returned a TGI of more than 100 µM. In turn, `CCN(CC)C(c1ccc(N(C)C)cc1)C(c1ccc(N(C)C)cc1)N(CC)CC` (stereo unspecified) registered a TGI of more than 73 µM. As to `CCOC1Oc2ccc(C)cc2C(=O)/C1=C\Nc1ccc(C(N)=O)cc1` (stereo unspecified), the GI50 is 23.6 µM and the TGI was 54.2 µM. Turning to `COc1nc(N=P(c2ccccc2)(c2ccccc2)c2ccccc2)cc(=O)[nH]1`, the TGI is more than 100 µM. With `COc1ccccc1N(CN1C(=O)CCC1C(=O)O)C(C)=O` (stereo unspecified), the TGI is more than 100 µM. Still for that read-out and setting: with `CC1OC(OC2C(OC(=O)[C@]34CCC(C)(C)CC3C3=CCC5[C@@]6(C)C[C@H](O)[C@H](OC7OC(CO)C(O)C(O)C7N)[C@@](C)(C(=O)O)C6CC[C@@]5(C)C3(C)CC4)OCC(O)C2O)C(O)C(O)C1OC1OCC(O)C(O)C1O` (stereo partly specified) the figure was more than 100 µM; with `CCOC(=O)CCCNC(=O)CCCCC(=O)N(C)C`, more than 100 µM; with `O=C(O)c1ccccc1/C=N/NC1=NCCN1`, more than 100 µM. The same measure, in the same setting: with `C[N+](C)(C)CCCSc1nc2ccccc2[nH]1` the figure was more than 100 µM; with `CCOC(=O)/C(=C\c1ccccc1)C(=O)O`, more than 100 µM; with `O=C(Cn1c2c(c3ccccc31)CCCC2)N1CCCC1`, more than 100 µM. In turn, `C=C1[C@H](OC(C)=O)[C@H]2[C@@H](OC(C)=O)[C@@H](C)C[C@]2(C)C(=O)[C@H](C)/C=C/C(C)(C)C(=O)[C@H](OCC(C)C)[C@H]1OC(C)=O` returned a TGI of more than 25 µM.

`O=C1C(Cl)=C(NCCN2CCOCC2)C(=O)c2ncccc21`: the GI50 is 1.74 µM; the TGI was 2.75 µM and 3.27 µM. Turning to `[Cl-].[Rh+3].c1cnc2c(c1)ccc1cccnc12.c1cnc2c(c1)ccc1cccnc12.c1cnc2c(c1)ccc1cccnc12`, the TGI was more than 100 µM. With `CCCn1c(=S)sc2c1nc(C)n1c(Nc3ccccc3)nnc21`, the GI50 was 4.3 µM and the TGI was determined as 57.3 µM. Turning to `N#CSC1CCCCNC1=O` (stereo unspecified), the TGI came out at 31.7 µM.

Regarding `CCc1ccccc1NC(=O)C1=C(C)NC(C)=C(C(=O)Nc2ccccc2CC)C1c1ccc2c(c1)OCO2`, the TGI was more than 100 µM. Compound `c1ccc(-c2nc3ccccc3n3c(CN4CCCCC4)nnc23)cc1` registered a TGI of more than 100 µM. The compound `O=C(O)C1CCCN(CCc2c[nH]c3ccccc23)C1` (stereo unspecified) gave a TGI of more than 100 µM. Take `Oc1c2cc(Cl)cc1COCc1cc(Cl)cc(c1O)COCc1cc(Cl)cc(c1O)COC2`: the TGI is more than 100 µM. Consider `NC(=O)COC(=O)c1c(Cl)nc2sccn12`, for which the TGI was more than 100 µM. For the compound `COc1ccc(C(=O)C#Cc2cnc(OC)nc2OC)cc1`, the TGI amounted to 28.5 µM and the result was inactive. As for `CC(C)(CO)N1CCN(C(=S)Nc2ccccc2)CC1`, the TGI was more than 100 µM. `COCCCNC(=O)C1C(=O)C(=O)N(CCCOC)C1=O` (stereo unspecified) yielded a TGI of more than 100 µM. Take `O=C1N=C(SC2OC(CO)C(O)C(O)C2O)S/C1=C\c1ccccc1` (stereo unspecified): the TGI was more than 100 µM. On to `CCCC(=O)OCC1OC(n2cnc3c(=S)nc[nH]c32)C(OC(=O)CCC)C1OC(=O)CCC` (stereo unspecified), for which the GI50 was 6.42 µM and the TGI is more than 100 µM. In turn, `C[C@@H]1OC(=O)N2CCCC(=C3SCCCS3)C12` (stereo partly specified) showed a TGI of more than 100 µM.

As to `O=C1CCC2(c3ccccc3)Nc3ccncc3N12` (stereo unspecified), the TGI is more than 10 µM. `Cc1cc2cc3c(cc2c(-c2ccc([N+](=O)[O-])cc2)n1)OCO3` registered a TGI of more than 100 µM. For the compound `O=C(Nc1ccncc1)C(=O)c1cn(S(=O)(=O)c2cccc(F)c2)c2ccccc12`, the GI50 is 31.6 µM and the TGI is more than 100 µM. Turning to `COc1ccc(-c2onc(N)c2-c2cc(OC)c3c(c2)OCO3)cc1`, the GI50 is 6.38 µM and the TGI was more than 100 µM. For `CCC[CH2][Sn]1([CH2]CCC)[O]C(=O)CN=Cc2c(ccc3ccccc23)[O]1`, the GI50 is more than 100 µM and the TGI was more than 100 µM. Turning to `Cc1cc(-c2cnn3c(NCC4CC(C)(O)C4)cc(Oc4cccnc4)nc23)ccc1C(=O)NC1CC1` (stereo unspecified), the GI50 is 2.11 µM and the TGI was more than 100 µM. Compound `COC(=O)C1=C(O)C(C(=O)OC)[C@]2(O)[C@H](C(=O)OC)[C@H]1C[C@@H](c1ccc(Cl)cc1)[C@H]2C(=O)OC` (stereo partly specified) displayed a TGI of 23.3 µM. Same read-out and setting: next, `C/C(CC(=O)Nc1cc(C)ccc1C)=N\NC(=O)c1ccncc1`: more than 100 µM; `CCCCCCCCCCCCN(CC(O)C(O)C(OC1OC(CO)C(O)C(O)C1O)C(O)CO)C(=O)CCCCCCCCCCC` (stereo unspecified): 40.6 µM.

Regarding `CN(CCC(=O)O)C1=Nc2ccc(Cl)cc2C(c2ccccc2)=[N+]([O-])C1`, the TGI is more than 100 µM. `COc1ccc(C[C@@H](CO)NC2=C(C#N)CCC2)cc1` displayed a TGI of more than 100 µM. Regarding `CCOC(=O)C1(Cc2ccccc2)C=CN(C(=O)c2ccccc2)C=C1`, the TGI was more than 100 µM. Take `COc1ccccc1NC(=S)Nc1cc(C)cc(C)n1`: the TGI was more than 100 µM. With `COC(=O)c1cc(C)ccc1C1CN=NC12Cc1ccc(C)cc1C2=O` (stereo unspecified), the TGI was more than 100 µM.

As to `Cc1cc(C)c2c(O)c(S(=O)(=O)c3ccc(Cl)cc3)c(=O)oc2c1`, the TGI was more than 100 µM. For `CCOC(=O)NC(=O)c1cn(CCNCCO)c(=O)[nH]c1=O`, the TGI was more than 100 µM. For the compound `COC1(C)CP(=O)(OC(C)C)CC(C)=C1Cl` (stereo unspecified), the TGI was determined as 55.6 µM. Compound `Nc1cccnc1NCC1(CO)CCCC1` showed a TGI of more than 100 µM. Same read-out and setting: with `Cc1nc(-c2cc3c(ccc4ccccc43)oc2=O)cs1` the figure was more than 100 µM.
